7 molecules from PMC7948509 can be followed below.

Sequences of proteins named here, by UniProt entry; tags and fusion partners are left off.
UniProt P46937: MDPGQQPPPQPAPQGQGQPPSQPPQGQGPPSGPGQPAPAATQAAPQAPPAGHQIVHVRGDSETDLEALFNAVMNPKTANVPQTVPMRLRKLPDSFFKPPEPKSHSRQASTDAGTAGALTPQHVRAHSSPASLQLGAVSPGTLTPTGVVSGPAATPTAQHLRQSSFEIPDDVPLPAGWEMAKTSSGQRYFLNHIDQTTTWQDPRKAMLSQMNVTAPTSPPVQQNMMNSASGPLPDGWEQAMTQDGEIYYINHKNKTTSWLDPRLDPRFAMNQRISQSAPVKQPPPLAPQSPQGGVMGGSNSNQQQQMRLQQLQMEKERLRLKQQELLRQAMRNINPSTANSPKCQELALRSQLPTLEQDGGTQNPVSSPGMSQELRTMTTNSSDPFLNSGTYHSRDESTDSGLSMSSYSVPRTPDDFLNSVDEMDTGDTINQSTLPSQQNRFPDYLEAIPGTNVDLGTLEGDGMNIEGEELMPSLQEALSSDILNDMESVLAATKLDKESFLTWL
UniProt Q9BSQ5: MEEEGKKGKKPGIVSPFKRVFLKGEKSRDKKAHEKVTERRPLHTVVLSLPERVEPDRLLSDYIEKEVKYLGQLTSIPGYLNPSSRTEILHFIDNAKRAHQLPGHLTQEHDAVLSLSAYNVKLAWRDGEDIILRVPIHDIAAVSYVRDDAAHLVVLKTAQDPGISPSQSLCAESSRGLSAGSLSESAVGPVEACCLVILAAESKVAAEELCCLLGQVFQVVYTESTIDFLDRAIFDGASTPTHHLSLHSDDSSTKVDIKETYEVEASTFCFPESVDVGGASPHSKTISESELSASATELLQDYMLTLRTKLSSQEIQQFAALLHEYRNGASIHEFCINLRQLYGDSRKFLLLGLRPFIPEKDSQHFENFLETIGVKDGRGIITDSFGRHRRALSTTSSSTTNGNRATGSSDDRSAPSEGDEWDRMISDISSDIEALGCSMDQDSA
UniProt Q9BUL8: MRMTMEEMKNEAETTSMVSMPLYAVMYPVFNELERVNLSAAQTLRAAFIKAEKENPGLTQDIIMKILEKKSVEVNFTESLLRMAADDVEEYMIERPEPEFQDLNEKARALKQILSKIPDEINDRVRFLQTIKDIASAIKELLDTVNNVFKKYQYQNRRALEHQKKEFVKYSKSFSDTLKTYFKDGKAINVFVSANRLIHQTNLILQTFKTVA
UniProt Q9GZV5: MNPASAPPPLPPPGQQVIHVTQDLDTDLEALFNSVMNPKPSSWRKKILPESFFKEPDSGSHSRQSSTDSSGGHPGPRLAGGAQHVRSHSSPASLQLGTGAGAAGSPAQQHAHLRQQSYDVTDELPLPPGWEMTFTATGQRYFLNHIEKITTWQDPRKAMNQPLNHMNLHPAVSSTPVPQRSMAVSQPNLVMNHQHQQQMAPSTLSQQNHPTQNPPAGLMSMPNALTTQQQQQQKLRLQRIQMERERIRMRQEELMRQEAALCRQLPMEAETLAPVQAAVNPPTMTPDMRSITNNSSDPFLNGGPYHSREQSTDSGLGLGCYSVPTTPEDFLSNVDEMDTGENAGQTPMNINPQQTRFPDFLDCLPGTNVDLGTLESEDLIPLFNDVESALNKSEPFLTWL

These are yes or no findings as the source states them, for the method shown. Binding seen in cells or lysates may run through a third protein. Some binding calls cover weakened binding; strength is not graded here. For some of these results: Where a sequence is shown, tags or fusion partners need not be part of it.

The target in one test is T1, MEKK3-Flag (human) (UniProt Q99759).
T1 sequence: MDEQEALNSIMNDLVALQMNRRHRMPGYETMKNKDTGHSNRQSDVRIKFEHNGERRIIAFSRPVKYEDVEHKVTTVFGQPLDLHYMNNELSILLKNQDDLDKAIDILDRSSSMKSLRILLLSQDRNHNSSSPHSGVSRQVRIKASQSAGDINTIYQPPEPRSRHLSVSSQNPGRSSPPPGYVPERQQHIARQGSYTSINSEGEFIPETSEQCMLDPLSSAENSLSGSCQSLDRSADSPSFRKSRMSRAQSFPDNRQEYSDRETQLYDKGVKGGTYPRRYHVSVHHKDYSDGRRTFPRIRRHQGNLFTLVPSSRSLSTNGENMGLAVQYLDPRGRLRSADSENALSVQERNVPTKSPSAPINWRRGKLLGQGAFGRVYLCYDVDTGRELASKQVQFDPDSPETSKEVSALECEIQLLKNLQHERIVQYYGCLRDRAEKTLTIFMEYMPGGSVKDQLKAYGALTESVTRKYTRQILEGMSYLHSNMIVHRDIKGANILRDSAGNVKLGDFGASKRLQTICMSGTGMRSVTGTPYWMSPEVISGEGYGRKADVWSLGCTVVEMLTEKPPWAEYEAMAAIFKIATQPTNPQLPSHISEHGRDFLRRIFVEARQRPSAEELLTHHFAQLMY
Nature of the test: co-IP; LATS1/2 DKO HEK293A cells transiently transfected; MEKK2-Flag or MEKK3-Flag immunoprecipitated; associated HA-tagged protein detected by immunoblotting (Fig. 3A, 3B). (In western blotting, separated proteins are transferred to a membrane and probed.)

The target in a further test is T2, MEKK2-Flag (human) (UniProt Q9Y2U5).
T2 sequence: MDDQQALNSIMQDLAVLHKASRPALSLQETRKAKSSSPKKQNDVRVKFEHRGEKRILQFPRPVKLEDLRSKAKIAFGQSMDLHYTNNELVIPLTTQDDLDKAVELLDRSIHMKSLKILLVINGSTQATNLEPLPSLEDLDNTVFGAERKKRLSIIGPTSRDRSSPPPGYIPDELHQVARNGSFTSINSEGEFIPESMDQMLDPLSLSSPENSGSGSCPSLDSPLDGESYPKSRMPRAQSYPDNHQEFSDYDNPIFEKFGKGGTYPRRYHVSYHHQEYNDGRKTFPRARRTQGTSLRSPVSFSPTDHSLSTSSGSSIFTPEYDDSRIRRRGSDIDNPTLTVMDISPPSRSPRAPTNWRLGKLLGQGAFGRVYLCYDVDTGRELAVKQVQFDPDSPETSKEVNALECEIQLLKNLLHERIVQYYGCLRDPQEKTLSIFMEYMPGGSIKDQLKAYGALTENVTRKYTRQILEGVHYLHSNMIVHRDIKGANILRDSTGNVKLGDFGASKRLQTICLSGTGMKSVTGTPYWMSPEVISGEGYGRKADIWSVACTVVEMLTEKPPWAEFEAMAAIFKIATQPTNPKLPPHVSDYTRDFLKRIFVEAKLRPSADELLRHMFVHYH
The test is described as above.

In a further test the target is T3, MEKK3-HA (human) (UniProt Q99759).
T3 sequence: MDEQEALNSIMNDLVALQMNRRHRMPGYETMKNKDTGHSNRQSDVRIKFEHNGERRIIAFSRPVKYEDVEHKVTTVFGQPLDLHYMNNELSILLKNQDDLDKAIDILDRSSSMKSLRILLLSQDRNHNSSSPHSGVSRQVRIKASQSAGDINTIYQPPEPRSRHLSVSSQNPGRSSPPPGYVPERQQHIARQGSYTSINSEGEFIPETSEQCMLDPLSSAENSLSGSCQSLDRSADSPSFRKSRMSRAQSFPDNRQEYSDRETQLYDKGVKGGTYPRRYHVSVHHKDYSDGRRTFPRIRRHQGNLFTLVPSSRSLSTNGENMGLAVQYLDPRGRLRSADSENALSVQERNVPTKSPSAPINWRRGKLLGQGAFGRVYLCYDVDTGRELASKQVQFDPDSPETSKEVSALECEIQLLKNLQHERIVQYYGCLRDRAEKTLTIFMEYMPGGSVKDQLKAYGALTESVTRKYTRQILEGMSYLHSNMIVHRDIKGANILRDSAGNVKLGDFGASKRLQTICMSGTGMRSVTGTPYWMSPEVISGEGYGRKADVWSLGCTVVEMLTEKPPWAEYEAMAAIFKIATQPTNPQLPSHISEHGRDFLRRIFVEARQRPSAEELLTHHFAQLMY
Nature of the test: co-IP; MEKK3-HA co-expressed with both CCM2-Flag and CCM3-Flag in HEK293A cells; immunoprecipitation by anti-HA antibody; detection by anti-Flag antibody (Fig. S6B, 6C untreated).

The target in test [1] is T4, LATS1 (endogenous) (human (endogenous in HEK293T)) (UniProt O95835).
T4 sequence: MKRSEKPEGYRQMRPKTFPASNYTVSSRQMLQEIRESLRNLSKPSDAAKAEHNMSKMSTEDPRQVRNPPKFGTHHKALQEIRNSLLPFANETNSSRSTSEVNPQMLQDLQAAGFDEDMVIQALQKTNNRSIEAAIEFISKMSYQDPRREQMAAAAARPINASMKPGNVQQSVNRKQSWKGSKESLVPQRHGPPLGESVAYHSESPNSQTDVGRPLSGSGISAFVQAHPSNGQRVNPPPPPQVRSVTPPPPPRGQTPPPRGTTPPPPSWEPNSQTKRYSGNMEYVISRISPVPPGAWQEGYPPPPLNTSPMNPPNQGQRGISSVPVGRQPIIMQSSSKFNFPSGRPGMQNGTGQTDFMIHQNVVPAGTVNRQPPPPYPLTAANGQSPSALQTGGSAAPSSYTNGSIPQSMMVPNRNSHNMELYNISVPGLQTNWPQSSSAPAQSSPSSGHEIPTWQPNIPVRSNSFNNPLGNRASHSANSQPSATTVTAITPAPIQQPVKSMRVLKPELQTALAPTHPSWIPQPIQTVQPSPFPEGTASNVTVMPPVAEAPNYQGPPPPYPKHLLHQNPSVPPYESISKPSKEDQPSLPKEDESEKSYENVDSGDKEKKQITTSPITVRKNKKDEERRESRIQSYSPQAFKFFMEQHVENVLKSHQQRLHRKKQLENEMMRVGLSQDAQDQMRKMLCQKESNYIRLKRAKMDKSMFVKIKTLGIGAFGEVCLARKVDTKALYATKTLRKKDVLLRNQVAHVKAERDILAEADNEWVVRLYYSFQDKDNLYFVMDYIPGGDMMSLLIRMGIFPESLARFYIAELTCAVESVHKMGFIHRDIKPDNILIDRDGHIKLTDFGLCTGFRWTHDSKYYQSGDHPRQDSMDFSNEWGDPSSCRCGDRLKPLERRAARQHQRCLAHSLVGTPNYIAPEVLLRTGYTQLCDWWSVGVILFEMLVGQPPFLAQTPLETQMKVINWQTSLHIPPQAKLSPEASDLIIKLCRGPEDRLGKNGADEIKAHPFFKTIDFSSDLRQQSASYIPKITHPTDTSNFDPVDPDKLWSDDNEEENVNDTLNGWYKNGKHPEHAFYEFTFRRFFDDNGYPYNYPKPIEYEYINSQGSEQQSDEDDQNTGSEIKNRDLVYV
Nature of the test: co-IP; endogenous LATS1 immunoprecipitated from YAP/TAZ knockdown HEK293T cells; immunoblot with anti-MEKK2 and anti-MEKK3 antibodies (Fig. 2G).

The target of test [2] is YAP (endogenous) (human (endogenous in HEK293A)) (UniProt P46937). The experiment in a line: co-IP; endogenous; immunoprecipitation from LATS1/2 DKO HEK293A cell lysates by anti-YAP antibody; blotted with anti-YAP, MEKK2 or MEKK3 antibodies (Fig. 3C).
The target of another test is CCM2-Flag (UniProt Q9BSQ5). Nature of the test: co-IP; HEK293T cells transfected with the tagged plasmids; lysis in 50 mM Tris pH 7.4, 150 mM NaCl, 1% NP-40, 1 mM EDTA; anti-Flag M2 magnetic beads, 4 °C overnight; immunoblot for the HA-tagged partner (Fig. 2F, 6A, 6B); MEKK2/3 with LATS1/2 also in YAP/TAZ knockdown cells (Fig. S2G-I).
The target in another test is Flag-YAP (UniProt P46937). The test is described as above.
The next test deals with CCM3-Flag (UniProt Q9BUL8). The description is as above.

Take HA-TAZ (from UniProt Q9GZV5 1-400): the binding entry with MEKK3-Flag (human) and with MEKK2-Flag (human) was “binds” throughout.

Regarding CCM2-Flag (from UniProt Q9BSQ5 1-444), the binding entry with MEKK3-HA (human) was “binds”.

Regarding HA-YAP (from UniProt P46937 1-504), the binding result in the test with MEKK3-Flag (human) and with MEKK2-Flag (human) was “binds” each time.

B1: MEKK2 (endogenous) (protein, UniProt Q9Y2U5 1-619)
chain: MDDQQALNSIMQDLAVLHKASRPALSLQETRKAKSSSPKKQNDVRVKFEHRGEKRILQFPRPVKLEDLRSKAKIAFGQSMDLHYTNNELVIPLTTQDDLDKAVELLDRSIHMKSLKILLVINGSTQATNLEPLPSLEDLDNTVFGAERKKRLSIIGPTSRDRSSPPPGYIPDELHQVARNGSFTSINSEGEFIPESMDQMLDPLSLSSPENSGSGSCPSLDSPLDGESYPKSRMPRAQSYPDNHQEFSDYDNPIFEKFGKGGTYPRRYHVSYHHQEYNDGRKTFPRARRTQGTSLRSPVSFSPTDHSLSTSSGSSIFTPEYDDSRIRRRGSDIDNPTLTVMDISPPSRSPRAPTNWRLGKLLGQGAFGRVYLCYDVDTGRELAVKQVQFDPDSPETSKEVNALECEIQLLKNLLHERIVQYYGCLRDPQEKTLSIFMEYMPGGSIKDQLKAYGALTENVTRKYTRQILEGVHYLHSNMIVHRDIKGANILRDSTGNVKLGDFGASKRLQTICLSGTGMKSVTGTPYWMSPEVISGEGYGRKADIWSVACTVVEMLTEKPPWAEFEAMAAIFKIATQPTNPKLPPHVSDYTRDFLKRIFVEAKLRPSADELLRHMFVHYH
In the case of B1, the binding result in test [1] and in test [2] was “binds” throughout.

B2: MEKK2-HA (protein, UniProt Q9Y2U5 1-619)
chain: MDDQQALNSIMQDLAVLHKASRPALSLQETRKAKSSSPKKQNDVRVKFEHRGEKRILQFPRPVKLEDLRSKAKIAFGQSMDLHYTNNELVIPLTTQDDLDKAVELLDRSIHMKSLKILLVINGSTQATNLEPLPSLEDLDNTVFGAERKKRLSIIGPTSRDRSSPPPGYIPDELHQVARNGSFTSINSEGEFIPESMDQMLDPLSLSSPENSGSGSCPSLDSPLDGESYPKSRMPRAQSYPDNHQEFSDYDNPIFEKFGKGGTYPRRYHVSYHHQEYNDGRKTFPRARRTQGTSLRSPVSFSPTDHSLSTSSGSSIFTPEYDDSRIRRRGSDIDNPTLTVMDISPPSRSPRAPTNWRLGKLLGQGAFGRVYLCYDVDTGRELAVKQVQFDPDSPETSKEVNALECEIQLLKNLLHERIVQYYGCLRDPQEKTLSIFMEYMPGGSIKDQLKAYGALTENVTRKYTRQILEGVHYLHSNMIVHRDIKGANILRDSTGNVKLGDFGASKRLQTICLSGTGMKSVTGTPYWMSPEVISGEGYGRKADIWSVACTVVEMLTEKPPWAEFEAMAAIFKIATQPTNPKLPPHVSDYTRDFLKRIFVEAKLRPSADELLRHMFVHYH
With B2, the binding result is given as “no binding” with CCM2-Flag, “binds” with Flag-YAP and “no binding” in the test with CCM3-Flag.

B3: MEKK3 (endogenous) (protein, UniProt Q99759 1-626)
chain: MDEQEALNSIMNDLVALQMNRRHRMPGYETMKNKDTGHSNRQSDVRIKFEHNGERRIIAFSRPVKYEDVEHKVTTVFGQPLDLHYMNNELSILLKNQDDLDKAIDILDRSSSMKSLRILLLSQDRNHNSSSPHSGVSRQVRIKASQSAGDINTIYQPPEPRSRHLSVSSQNPGRSSPPPGYVPERQQHIARQGSYTSINSEGEFIPETSEQCMLDPLSSAENSLSGSCQSLDRSADSPSFRKSRMSRAQSFPDNRQEYSDRETQLYDKGVKGGTYPRRYHVSVHHKDYSDGRRTFPRIRRHQGNLFTLVPSSRSLSTNGENMGLAVQYLDPRGRLRSADSENALSVQERNVPTKSPSAPINWRRGKLLGQGAFGRVYLCYDVDTGRELASKQVQFDPDSPETSKEVSALECEIQLLKNLQHERIVQYYGCLRDRAEKTLTIFMEYMPGGSVKDQLKAYGALTESVTRKYTRQILEGMSYLHSNMIVHRDIKGANILRDSAGNVKLGDFGASKRLQTICMSGTGMRSVTGTPYWMSPEVISGEGYGRKADVWSLGCTVVEMLTEKPPWAEYEAMAAIFKIATQPTNPQLPSHISEHGRDFLRRIFVEARQRPSAEELLTHHFAQLMY
B3: the binding result in test [1] and in test [2] was “binds” each time.

B4: MEKK3-HA (protein, UniProt Q99759 1-626)
chain: MDEQEALNSIMNDLVALQMNRRHRMPGYETMKNKDTGHSNRQSDVRIKFEHNGERRIIAFSRPVKYEDVEHKVTTVFGQPLDLHYMNNELSILLKNQDDLDKAIDILDRSSSMKSLRILLLSQDRNHNSSSPHSGVSRQVRIKASQSAGDINTIYQPPEPRSRHLSVSSQNPGRSSPPPGYVPERQQHIARQGSYTSINSEGEFIPETSEQCMLDPLSSAENSLSGSCQSLDRSADSPSFRKSRMSRAQSFPDNRQEYSDRETQLYDKGVKGGTYPRRYHVSVHHKDYSDGRRTFPRIRRHQGNLFTLVPSSRSLSTNGENMGLAVQYLDPRGRLRSADSENALSVQERNVPTKSPSAPINWRRGKLLGQGAFGRVYLCYDVDTGRELASKQVQFDPDSPETSKEVSALECEIQLLKNLQHERIVQYYGCLRDRAEKTLTIFMEYMPGGSVKDQLKAYGALTESVTRKYTRQILEGMSYLHSNMIVHRDIKGANILRDSAGNVKLGDFGASKRLQTICMSGTGMRSVTGTPYWMSPEVISGEGYGRKADVWSLGCTVVEMLTEKPPWAEYEAMAAIFKIATQPTNPQLPSHISEHGRDFLRRIFVEARQRPSAEELLTHHFAQLMY
Regarding B4, in the test with CCM2-Flag, the binding result is on record as “binds”.
